# Measurements from the supplement of paper PMC8728848.
# The other results are listed elsewhere or left out.
# B1: B1257 (Bifidobacterium sp) (protein)
# chain: MKKSIRLVAAIAALAMTAGISACGSSTNGNQAKSDVTAQDVETALTDTSKNVELTVWAYSAKQMEPTVKAFEKKYPHIKINFVNTGAAGDHFTKFQNVVQAQKDIPDVVQMGANKFQQFAVSGALLNFANDSIEKAWSKLYTKTAWAQVHYAGGLYGAPQDATPLANYVRKDILDEHNLQVPESWEDIYNEGIKLHKEDSNKYMGILGSDISFFTNLYRSVGARLWKVNSVDDVELTMNSGKAKEFTEFLQKCLKDGVLEGGTVFTDEFNRSINDGRYATFINENWMGNTYKEQNPSLKGKMVVAAPPSWKGQPYQSSSVGSMMSVSAACPKEKQAAALAFINWLDSDKDAIQSWQDTNNGNFFMAASVYQDDENQRNKKETDGYYANDDVNAVYFDSMDKVNTDWEYLPFMSQVEVVFNDVIVPQMNENGDLVGAMAKAQQELKTYAKDNGFKVTTDAD
# How the values were obtained:
# Test in all cases: glycan array binding signal (z-score within array); higher = stronger binding
# Conditions in all cases: glycan notation: IUPAC condensed, linker removed
# [1] = molecular target: Neu5Ac(a2-6)GlcNAc(b1-4)GlcNAc(b1-4)GlcNAc
# Outline: (§1)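 Negative Z-scores can be read as non-binding. The Z-score is calculated within each array and then averaged across arrays of one protein sequence at different concentrations or buffers and across linkers. Arrays, 3228 in all, were curated from the Consortium for Functional Glycomics database and kept only where the protein sequence was available.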
# Neu5Ac(a2-8)Neu5Ac = molecular target: Neu5Ac(a2-8)Neu5Ac
# Outline: as §1
# [2] = molecular target: Neu5Ac(a2-8)Neu5Ac(a2-3)Gal(b1-3)GalNAc(b1-4)[Neu5Ac(a2-3)]Gal(b1-4)Glc
# Outline: as §1
# [3] = molecular target: Neu5Ac(a2-8)Neu5Ac(a2-3)Gal(b1-3)GalNAc(b1-4)[Neu5Ac(a2-8)Neu5Ac(a2-3)]Gal(b1-4)Glc
# Outline: as §1
# [4] = molecular target: Neu5Ac(a2-8)Neu5Ac(a2-3)Gal(b1-4)Glc
# Outline: as §1
# [5] = molecular target: Neu5Ac(a2-8)Neu5Ac(a2-3)Gal(b1-4)GlcNAc
# Outline: as §1
# [6] = molecular target: Neu5Ac(a2-8)Neu5Ac(a2-3)[Gal(b1-3)GalNAc(b1-4)]Gal(b1-4)Glc
# Outline: as §1
# [7] = molecular target: Neu5Ac(a2-8)Neu5Ac(a2-3)[GalNAc(b1-4)]Gal(b1-4)Glc
# Outline: as §1
# [8] = molecular target: Neu5Ac(a2-8)Neu5Ac(a2-8)Neu5Ac
# Outline: as §1
# [9] = molecular target: Neu5Ac(a2-8)Neu5Ac(a2-8)Neu5Ac(a2-3)Gal(b1-4)Glc
# Outline: as §1
# [10] = molecular target: Neu5Ac(a2-8)Neu5Ac(a2-8)Neu5Ac(a2-3)[Gal(b1-3)GalNAc(b1-4)]Gal(b1-4)Glc
# Outline: as §1
# [11] = molecular target: Neu5Ac(a2-8)Neu5Ac(a2-8)Neu5Ac(a2-3)[GalNAc(b1-4)]Gal(b1-4)Glc
# Outline: as §1
# [12] = molecular target: Neu5Ac(a2-8)Neu5Ac(a2-8)Neu5Ac(a2-8)Neu5Ac(a2-3)[GalNAc(b1-4)]Gal(b1-4)Glc
# Outline: as §1
# [13] = molecular target: Neu5Ac(a2-8)Neu5Gc(a2-3)Gal(b1-4)GlcNAc
# Outline: as §1
# [14] = molecular target: Neu5Ac(b2-6)Gal(b1-4)GlcNAc
# Outline: as §1
# Neu5Ac(b2-6)GalNAc = molecular target: Neu5Ac(b2-6)GalNAc
# Outline: as §1
# [15] = molecular target: Neu5Ac9Ac(a2-3)Gal(b1-3)GlcNAc
# Outline: as §1
# [16] = molecular target: Neu5Ac9Ac(a2-3)Gal(b1-4)GlcNAc
# Outline: as §1
# [17] = molecular target: Neu5Ac9Ac(a2-6)Gal(b1-4)GlcNAc
# Outline: as §1
# [18] = molecular target: Neu5Gc(a2-3)Gal(b1-3)GlcNAc
# Outline: as §1
# [19] = molecular target: Neu5Gc(a2-3)Gal(b1-3)[Fuc(a1-4)]GlcNAc
# Outline: as §1
# Neu5Gc(a2-3)Gal(b1-4)Glc = molecular target: Neu5Gc(a2-3)Gal(b1-4)Glc
# Outline: as §1
# [20] = molecular target: Neu5Gc(a2-3)Gal(b1-4)GlcNAc
# Outline: as §1
# [21] = molecular target: Neu5Gc(a2-3)Gal(b1-4)GlcNAc(b1-3)Gal(b1-4)GlcNAc(b1-2)Man(a1-3)[Neu5Gc(a2-3)Gal(b1-4)GlcNAc(b1-3)Gal(b1-4)GlcNAc(b1-2)Man(a1-6)]Man(b1-4)GlcNAc(b1-4)GlcNAc
# Outline: as §1
# [22] = molecular target: Neu5Gc(a2-3)Gal(b1-4)[Fuc(a1-3)]GlcNAc
# Outline: as §1
# [23] = molecular target: Neu5Gc(a2-6)Gal(b1-4)GlcNAc
# Outline: as §1
# Neu5Gc(a2-6)GalNAc = molecular target: Neu5Gc(a2-6)GalNAc
# Outline: as §1
# [24] = molecular target: Neu5Gc(a2-8)Neu5Ac(a2-3)Gal(b1-4)GlcNAc
# Outline: as §1
# [25] = molecular target: Neu5Gc(a2-8)Neu5Gc(a2-3)Gal(b1-4)GlcNAc
# Outline: as §1
# [26] = molecular target: Neu5Gc(a2-8)Neu5Gc(a2-3)Gal(b1-4)GlcNAc(b1-3)Gal(b1-4)GlcNAc
# Outline: as §1
# [27] = molecular target: Neu5Gc(a2-8)Neu5Gc(a2-6)Gal(b1-4)GlcNAc
# Outline: as §1
# [28] = molecular target: Neu5Gc(b2-6)Gal(b1-4)GlcNAc
# Outline: as §1
binder,measurement,setting,value
B1,glycan array binding signal (z-score),[1],-0.081
same,glycan array binding signal (z-score),Neu5Ac(a2-8)Neu5Ac,-0.116
same,glycan array binding signal (z-score),[2],-0.085
same,glycan array binding signal (z-score),[3],-0.004
same,glycan array binding signal (z-score),[4],-0.165
same,glycan array binding signal (z-score),[5],-0.063
same,glycan array binding signal (z-score),[6],-0.153
same,glycan array binding signal (z-score),[7],-0.037
same,glycan array binding signal (z-score),[8],-0.056
same,glycan array binding signal (z-score),[9],-0.159
same,glycan array binding signal (z-score),[10],-0.128
same,glycan array binding signal (z-score),[11],-0.069
same,glycan array binding signal (z-score),[12],-0.223
same,glycan array binding signal (z-score),[13],-0.255
same,glycan array binding signal (z-score),[14],-0.094
same,glycan array binding signal (z-score),Neu5Ac(b2-6)GalNAc,-0.111
same,glycan array binding signal (z-score),[15],-0.049
same,glycan array binding signal (z-score),[16],-0.127
same,glycan array binding signal (z-score),[17],-0.125
same,glycan array binding signal (z-score),[18],-0.106
same,glycan array binding signal (z-score),[19],-0.065
same,glycan array binding signal (z-score),Neu5Gc(a2-3)Gal(b1-4)Glc,0.085
same,glycan array binding signal (z-score),[20],0.063
same,glycan array binding signal (z-score),[21],0.051
same,glycan array binding signal (z-score),[22],-0.012
same,glycan array binding signal (z-score),[23],-0.004
same,glycan array binding signal (z-score),Neu5Gc(a2-6)GalNAc,-0.027
same,glycan array binding signal (z-score),[24],0.07
same,glycan array binding signal (z-score),[25],-0.09
same,glycan array binding signal (z-score),[26],-0.138
same,glycan array binding signal (z-score),[27],-0.091
same,glycan array binding signal (z-score),[28],-0.058
